Results published in the supplement of paper PMC8728848.
This is one part of the list.

Experiments:
Assay in all cases: glycan array binding signal (z-score within array); higher = stronger binding
Details in all cases: glycan notation: IUPAC condensed, linker removed; mutation: R144S
[1] = target: Fuc(a1-2)[Gal(a1-4)]Gal(b1-4)GlcNAc
Outline: (§1)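 From the Consortium for Functional Glycomics database, 3228 arrays were curated, keeping only those whose protein sequence was available. Binding is given as a within-array Z-score averaged across arrays sharing a protein sequence and across linkers. Negative Z-scores can be read as non-binding.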

[2] = target: Fuc(a1-2)[GalNAc(a1-3)]Gal
Outline: as §1

[3] = target: Fuc(a1-2)[GalNAc(a1-3)]Gal(b1-3)GalNAc(a1-3)[Fuc(a1-2)]Gal(b1-4)GlcNAc
Outline: as §1

[4] = target: Fuc(a1-2)[GalNAc(a1-3)]Gal(b1-3)GlcNAc
Outline: as §1

[5] = target: Fuc(a1-2)[GalNAc(a1-3)]Gal(b1-3)GlcNAc(b1-2)Man(a1-3)[Fuc(a1-2)[GalNAc(a1-3)]Gal(b1-3)GlcNAc(b1-2)Man(a1-6)]Man(b1-4)GlcNAc(b1-4)GlcNAc
Outline: as §1

[6] = target: Fuc(a1-2)[GalNAc(a1-3)]Gal(b1-4)Glc
Outline: as §1

[7] = target: Fuc(a1-2)[GalNAc(a1-3)]Gal(b1-4)GlcNAc
Outline: as §1

[8] = target: Fuc(a1-2)[GalNAc(a1-3)]Gal(b1-4)GlcNAc(b1-2)Man(a1-3)[Fuc(a1-2)[GalNAc(a1-3)]Gal(b1-4)GlcNAc(b1-2)Man(a1-6)]Man(b1-4)GlcNAc(b1-4)GlcNAc
Outline: as §1

[9] = target: Fuc(a1-2)[GalNAc(a1-3)]Gal(b1-4)GlcNAc(b1-3)Gal(b1-4)GlcNAc
Outline: as §1

[10] = target: Fuc(a1-2)[GalNAc(a1-3)]Gal(b1-4)GlcNAc(b1-3)Gal(b1-4)GlcNAc(b1-3)Gal(b1-4)GlcNAc
Outline: as §1

[11] = target: Fuc(a1-2)[GalNAc(a1-3)]Gal(b1-4)[Fuc(a1-3)]GlcNAc
Outline: as §1

[12] = target: Fuc(a1-2)[GalNAc(a1-4)]Gal(b1-4)GlcNAc
Outline: as §1

[13] = target: Fuc(a1-2)[GalNAc(b1-3)]Gal
Outline: as §1

Fuc(a1-3)GlcNAc = target: Fuc(a1-3)GlcNAc
Outline: as §1

[14] = target: Fuc(a1-3)[Gal(b1-4)]Glc6S
Outline: as §1

[15] = target: Fuc(a1-3)[Gal(b1-4)]GlcNAc
Outline: as §1

[16] = target: Fuc(a1-3)[Gal(b1-4)]GlcNAc(b1-2)Man(a1-3)[Fuc(a1-3)[Gal(b1-4)]GlcNAc(b1-2)Man(a1-6)]Man(b1-4)GlcNAc(b1-4)GlcNAc
Outline: as §1

[17] = target: Fuc(a1-3)[Gal(b1-4)]GlcNAc(b1-3)Gal(b1-3)[Fuc(a1-4)]GlcNAc
Outline: as §1

[18] = target: Fuc(a1-3)[Gal(b1-4)]GlcNAc(b1-3)GalNAc
Outline: as §1

[19] = target: Fuc(a1-3)[Gal(b1-4)]GlcNAc(b1-4)Gal(b1-4)[Fuc(a1-3)]GlcNAc
Outline: as §1

[20] = target: Fuc(a1-3)[Gal(b1-4)]GlcNAc(b1-4)Gal(b1-4)[Fuc(a1-3)]GlcNAc(b1-4)Gal(b1-4)[Fuc(a1-3)]GlcNAc
Outline: as §1

[21] = target: Fuc(a1-3)[Gal(b1-4)]GlcNAc(b1-6)[Gal(b1-3)GlcNAc(b1-3)]Gal(b1-4)Glc
Outline: as §1

[22] = target: Fuc(a1-3)[Gal(b1-4)]GlcNAc6S
Outline: as §1

[23] = target: Fuc(a1-3)[Gal3S(b1-4)]GlcNAc
Outline: as §1

[24] = target: Fuc(a1-3)[Gal3S(b1-4)]GlcNAc6S
Outline: as §1

[25] = target: Fuc(a1-3)[GalNAc(b1-4)]GlcNAc
Outline: as §1

Fuc(a1-4)GlcNAc = target: Fuc(a1-4)GlcNAc
Outline: as §1

Fuc(b1-3)GlcNAc = target: Fuc(b1-3)GlcNAc
Outline: as §1

Gal(a1-2)Gal = target: Gal(a1-2)Gal
Outline: as §1

Gal(a1-3)Gal = target: Gal(a1-3)Gal
Outline: as §1

Gal(a1-3)Gal(b1-3)GlcNAc = target: Gal(a1-3)Gal(b1-3)GlcNAc
Outline: as §1

[26] = target: Gal(a1-3)Gal(b1-3)GlcNAc(b1-2)Man(a1-3)[Gal(a1-3)Gal(b1-3)GlcNAc(b1-2)Man(a1-6)]Man(b1-4)GlcNAc(b1-4)GlcNAc
Outline: as §1

[27] = target: Gal(a1-3)Gal(b1-3)[Fuc(a1-4)]GlcNAc(b1-2)Man(a1-3)[Gal(a1-3)Gal(b1-3)[Fuc(a1-4)]GlcNAc(b1-2)Man(a1-6)]Man(b1-4)GlcNAc(b1-4)GlcNAc
Outline: as §1

Gal(a1-3)Gal(b1-4)Glc = target: Gal(a1-3)Gal(b1-4)Glc
Outline: as §1

Gal(a1-3)Gal(b1-4)GlcNAc = target: Gal(a1-3)Gal(b1-4)GlcNAc
Outline: as §1

[28] = target: Gal(a1-3)Gal(b1-4)GlcNAc(b1-3)GalNAc
Outline: as §1

[29] = target: Gal(a1-3)Gal(b1-4)[Fuc(a1-3)]GlcNAc
Outline: as §1

[30] = target: Gal(a1-3)Gal(b1-4)[Fuc(a1-3)]GlcNAc(b1-2)Man(a1-3)[Gal(a1-3)Gal(b1-4)[Fuc(a1-3)]GlcNAc(b1-2)Man(a1-6)]Man(b1-4)GlcNAc(b1-4)GlcNAc
Outline: as §1

B1: Gal 3 (Homo sapiens), P17931 (protein)
chain: MADNFSLHDALSGSGNPNPQGWPGAWGNQPAGAGGYPGASYPGAYPGQAPPGAYPGQAPPGAYHGAPGAYPGAPAPGVYPGPPSGPGAYPSSGQPSAPGAYPATGPYGAPAGPLIVPYNLPLPGGVVPRMLITILGTVKPNANSILDFQRGNDVAFHFNPRFNENNRRVIVCNTKLDNNWGREERQSVFPFESGKPFKIQVLVEPDHFKVAVNDAHLLQYNHRVKKLNEISKLGISGDIDLTSASYTMI
Question: B1 was tested. Which “glycan array binding signal (z-score)” value [1] did it give?
Answer: -0.362

Question: And the “glycan array binding signal (z-score)” value [2]?
Answer: -0.357

Question: What about the “glycan array binding signal (z-score)” value [3] of the same binder?
Answer: 2.8

Question: What about the “glycan array binding signal (z-score)” value [4] of the same binder?
Answer: 3.22

Question: What about the “glycan array binding signal (z-score)” value [5] of the same binder?
Answer: 6.11

Question: What about the “glycan array binding signal (z-score)” value [6] of the same binder?
Answer: 2.4

Question: And the “glycan array binding signal (z-score)” value [7]?
Answer: 3.36

Question: What about the “glycan array binding signal (z-score)” value [8] of the same binder?
Answer: 5.95

Question: And the “glycan array binding signal (z-score)” value [9]?
Answer: 4.53

Question: What about the “glycan array binding signal (z-score)” value [10] of the same binder?
Answer: 4.99

Question: What about the “glycan array binding signal (z-score)” value [11] of the same binder?
Answer: -0.356

Question: And the “glycan array binding signal (z-score)” value [12]?
Answer: -0.356

Question: What about the “glycan array binding signal (z-score)” value [13] of the same binder?
Answer: -0.358

Question: What about the “glycan array binding signal (z-score)” value (Fuc(a1-3)GlcNAc) of the same binder?
Answer: -0.349

Question: What about the “glycan array binding signal (z-score)” value [14] of the same binder?
Answer: -0.358

Question: And the “glycan array binding signal (z-score)” value [15]?
Answer: -0.36

Question: What about the “glycan array binding signal (z-score)” value [16] of the same binder?
Answer: -0.354

Question: And the “glycan array binding signal (z-score)” value [17]?
Answer: -0.36

Question: What about the “glycan array binding signal (z-score)” value [18] of the same binder?
Answer: -0.357

Question: What about the “glycan array binding signal (z-score)” value [19] of the same binder?
Answer: -0.358

Question: And the “glycan array binding signal (z-score)” value [20]?
Answer: -0.358

Question: And the “glycan array binding signal (z-score)” value [21]?
Answer: -0.3

Question: What about the “glycan array binding signal (z-score)” value [22] of the same binder?
Answer: -0.366

Question: What about the “glycan array binding signal (z-score)” value [23] of the same binder?
Answer: -0.359

Question: And the “glycan array binding signal (z-score)” value [24]?
Answer: -0.349

Question: What about the “glycan array binding signal (z-score)” value [25] of the same binder?
Answer: -0.354

Question: What about the “glycan array binding signal (z-score)” value (Fuc(a1-4)GlcNAc) of the same binder?
Answer: -0.358

Question: What about the “glycan array binding signal (z-score)” value (Fuc(b1-3)GlcNAc) of the same binder?
Answer: -0.356

Question: What about the “glycan array binding signal (z-score)” value (Gal(a1-2)Gal) of the same binder?
Answer: -0.362

Question: And the “glycan array binding signal (z-score)” value (Gal(a1-3)Gal)?
Answer: -0.357

Question: And the “glycan array binding signal (z-score)” value (Gal(a1-3)Gal(b1-3)GlcNAc)?
Answer: 0.831

Question: What about the “glycan array binding signal (z-score)” value [26] of the same binder?
Answer: -0.347

Question: And the “glycan array binding signal (z-score)” value [27]?
Answer: -0.356

Question: What about the “glycan array binding signal (z-score)” value (Gal(a1-3)Gal(b1-4)Glc) of the same binder?
Answer: -0.07

Question: And the “glycan array binding signal (z-score)” value (Gal(a1-3)Gal(b1-4)GlcNAc)?
Answer: 0.491

Question: And the “glycan array binding signal (z-score)” value [28]?
Answer: 0.785

Question: And the “glycan array binding signal (z-score)” value [29]?
Answer: -0.356

Question: And the “glycan array binding signal (z-score)” value [30]?
Answer: -0.359
